Reference: PubChem BioAssay AID504832 (National Center for Advancing Translational Sciences (NCATS), 2011)
The campaign covered roughly 310,000 compounds. About 18,000 (5.8%) were called active. The inconclusive results got no clear call from the source; some entries with a clear call stand among them for comparison. The call rests on the fitted dose curve; in most records, active means well fitted inhibition curve with a large enough effect; inconclusive means small, poorly fitted or top-dose-only effect, or another doubt; inactive means no such curve, though single readings can be large or run the other way. Potencies of inconclusive entries are left out as doubtful fits.

Assay: Primary qHTS for delayed death inhibitors of the malarial parasite plastid, 48 hour incubation
Conditions: P. falciparum luciferase growth in erythrocytes; series mostly up to 28.7 µM; activity change, negative = inhibition: at the top concentration
Summary of the method: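 Erythrocytes infected with P. falciparum carrying an integrated firefly luciferase reporter (2% hematocrit, 0.1% parasitemia final) were exposed to compounds in RPMI 1640 with 0.5% Albumax at 37 C, 5% CO2. Growth inhibition was scored as reduced luminescence.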
On the % scale 0 is the no-effect control and ±100 the full control effect; potency means the concentration at half of the fitted maximal effect; tags describe the fitted curve by direction and shape.

Row | Compound | activity change, negative = inhibition | Potency
1 | COC(=O)c1ccc(NC(=O)c2cc(Cl)ccc2OC)cc1 | inactive: -5.41% [at 5.75 µM] | 
2 | O=C(NCC1CCCO1)c1cn(Cc2ccccc2)nc1-c1ccc(Cl)cc1 (stereo not drawn) |  | inconclusive [inhibitor, single point]
3 | CC(C)c1ccc(NC(=O)Nc2cnccn2)cc1 | inactive: 54.9% | 
4 | COc1ccccc1CN(Cc1cc2cc(C)ccc2[nH]c1=O)Cc1nnnn1Cc1ccco1 |  | active: 11.7 µM
5 | CC(C)CC(C)N1CCC(n2nccc2NC(=O)CCc2ccccc2)CC1 (stereo not drawn) | inactive: 16.7% | 
6 | CC(=O)c1nnn(-c2c(F)cccc2F)c1C | inactive: 78.1% | 
7 | COc1cc(OC)cc(C(=O)Nc2ccccc2N2CCOCC2)c1 |  | inconclusive [inhibitor, partial curve, poor fit]
8 | CCCCn1cnc2c(=S)nc(N)[nH]c21 |  | inconclusive [inhibitor, partial curve, poor fit]
9 | NNC(=O)CN1C(c2ccc(Cl)cc2)=Nc2ccc(Br)cc2C1c1ccccc1 (stereo not drawn) |  | active: 8.28 µM
10 | CCCC[C@@]1(C2CCCC2)Cc2cc(OCC(=O)O)c(Cl)c(Cl)c2C1=O |  | inconclusive [inhibitor, single point]
11 | O=C(COC(=O)c1ccc(O)cc1)NC(=O)NCc1ccccc1 |  | inconclusive [inhibitor, single point]
12 | COc1ccc(OC)c2sc(N(CCCN(C)C)C(=O)CCS(=O)(=O)c3ccccc3)nc12 |  | inconclusive [inhibitor, single point]
13 | CCN(CC)S(=O)(=O)c1ccc(NC2CCCc3ccccc32)nc1 (stereo not drawn) |  | inconclusive [inhibitor, single point]
14 | O=C1c2cccc3c(N4CCOCC4)c([N+](=O)[O-])cc(c23)C(=O)N1c1cccc2ccccc12 |  | inconclusive [inhibitor, single point]
15 | COc1ccc(CNC(=O)CCC(=O)N2C[C@H]3C[C@H](C2)c2cccc(=O)n2C3)cc1 |  | inconclusive [inhibitor, full curve, poor fit]
16 | COCCOC(=O)C1=C(C)NC(=O)NC1c1ccc(-c2ccc(F)cc2)o1 (stereo not drawn) | inactive: -14% | 
17 | c1ccc2c(NCCCN3CCOCC3)c3ccccc3nc2c1 |  | inconclusive [inhibitor, full curve]
18 | COc1ccc(-n2ccnc2SCC(=O)NCc2ccc(F)cc2)c(OC)c1 | inactive: 13.3% | 
19 | COc1cccc2cc(C(C)=O)c(=O)oc12 | inactive: 14.3% | 
20 | Cc1cc(C)nc(/N=C(\N)N(Cc2ccccc2)Cc2ccccc2)n1 |  | inconclusive [inhibitor, single point]
21 | COc1ccc(OC)c(NC(=O)Cn2c(-c3ccc(Cl)cc3)noc2=O)c1 |  | active: 4.15 µM
22 | CC(C(=O)Nc1cccc(S(=O)(=O)N2CCOCC2)c1)N1CCN(C/C=C/c2ccccc2)CC1 (stereo not drawn) |  | inconclusive [inhibitor, partial curve]
23 | CCOC(=O)C1CCCN(C(=O)c2cc3cc(OC)c(OC)cc3[nH]2)C1 (stereo not drawn) | inactive: 62% | 
24 | COc1cccc(C(=O)Nc2ncc3c(n2)CC(c2ccc(OC)cc2OC)CC3=O)c1 (stereo not drawn) |  | inconclusive [inhibitor, single point]
25 | COc1ccc2[nH]c(O)c(N=O)c2c1 | inactive: -16.1% | 

Row | Compound | activity change, negative = inhibition | Potency
26 | C[N+](C)(C)CCOP(=O)(O)OP(=O)([O-])OC[C@H]1O[C@@H](n2ccc(N)nc2=O)[C@H](O)[C@@H]1O | inactive: 3.5% | 
27 | O=C(Nc1ccc2c(c1)OCCO2)C1CCN(c2nnnn2-c2ccccc2)CC1 |  | inconclusive [inhibitor, full curve, poor fit]
28 | CC(NC(=O)CNC(=S)N(Cc1cccs1)C1CCCC1)c1ccccc1 (stereo not drawn) |  | inconclusive [inhibitor, single point]
29 | CCC(=O)Nc1nnc(S(=O)(=O)N(CC)c2ccc(OC)cc2)s1 |  | inconclusive [inhibitor, full curve, poor fit]
30 | C=CCOc1ccc(/C=N/NC(=O)C(=O)Nc2ccccn2)cc1OC | inactive: 6.65% | 
31 | COc1ccc(NC(=O)CSc2nc(N)c(NC(=O)c3ccccc3F)c(=O)[nH]2)cc1 | inactive: 22.1% | 
32 | CCc1ccc(NC(=O)COC(=O)CCCC2=NS(=O)(=O)c3ccccc3N2)cc1 | inactive: 9.9% | 
33 | COc1cccc(NC(=O)CN(C)C(=O)CC(NC(=O)c2ccccc2Cl)c2ccccc2)c1 (stereo not drawn) |  | inconclusive [inhibitor, single point]
34 | Cc1cc2nnc(SCC(=O)Nc3cc(S(=O)(=O)N4CCOCC4)ccc3Cl)n2c2ccccc12 |  | active: 5.22 µM
35 | Cn1cnnc1SCc1ccc(C(=O)N=Nc2c(O)n(C)c3ccccc23)cc1 |  | inconclusive [inhibitor, single point]
36 | Cc1ccc(Nc2nnc(SCC(=O)NC3CCS(=O)(=O)C3)s2)c(C)c1 (stereo not drawn) |  | inconclusive [inhibitor, partial curve]
37 | Cc1cccc(-c2noc(CNS(=O)(=O)c3ccccc3)n2)c1 | inactive: 22.8% | 
38 | CCCN(C(=O)c1cc(Cl)nc2ccccc12)c1c(N)n(Cc2ccccc2)c(=O)[nH]c1=O |  | inconclusive [inhibitor, single point]
39 | CCCC1CCC(c2ccc(/C(N)=N/O)cc2)CC1 (stereo not drawn) | inactive: 13.3% | 
40 | O=C(Cc1ccccc1)Nc1ccc(NC(=O)c2cccnc2)cc1 | inactive: 20% | 
41 | CCC(C)NC(=O)c1ccccc1NC(=O)c1ccc(CSc2ccccc2)cc1 (stereo not drawn) |  | active: 11.7 µM
42 | COc1cc(C(=S)N2CCOCC2)ccc1OC(=O)c1ccccc1 |  | inconclusive [inhibitor, full curve, poor fit]
43 | COc1ccc(-c2cc(C(=O)O)[nH]n2)cc1OC | inactive: 8.4% | 
44 | O=C(NC1CCCCC1)c1cc([N+](=O)[O-])[nH]n1 | inactive: 16.4% | 
45 | CCc1cccc(NC(=O)[C@@H]2CCCN2C2=NS(=O)(=O)c3ccccc32)c1 | inactive: -15.4% | 
46 | COCC(=O)Nc1cc(C(=O)Nc2ccccc2C)ccc1Cl | inactive: 1.19% | 
47 | CCN(CC)S(=O)(=O)c1ccc(C(=O)Nc2cc(C)on2)cc1 |  | active: 11.7 µM
48 | COc1ccc(-c2cc(C)no2)cc1S(=O)(=O)NCCc1ccco1 |  | inconclusive [inhibitor, single point]
49 | CC(=O)c1ccc(Cc2ncc(C(F)(F)F)cc2Cl)s1 |  | active: 13.1 µM
50 | COc1ccc(C2C(C(C)=O)=C(O)C(=O)N2c2ccc(O)cc2)cc1 (stereo not drawn) | inactive: 20.4% | 

Row | Compound | activity change, negative = inhibition | Potency
51 | COc1ccc(OC)c(C2=Nn3c(nnc3C3CCCCC3)SC2)c1 |  | inconclusive [inhibitor, single point]
52 | CCOc1cc2[nH]c(=S)n(Cc3ccc(C(=O)NCC(OC)OC)cc3)c(=O)c2cc1OCC |  | inconclusive [inhibitor, full curve, poor fit]
53 | Cc1cccc(N(C(=O)Cn2nnc3ccccc32)C(C(=O)NCc2ccco2)c2ccncc2)c1C (stereo not drawn) |  | inconclusive [inhibitor, partial curve]
54 | CCC(Sc1nc(=O)cc(N)n1CCc1ccccc1)C(=O)Nc1ccccc1C#N (stereo not drawn) |  | inconclusive [inhibitor, partial curve]
55 | O=C(Oc1cccc2cccnc12)c1ccc2c(c1)OCCO2 | inactive: -17.8% | 
56 | C[C@@H](C(=O)Nc1nc2ccc(F)cc2s1)N1C(=O)C2CC=CCC2C1=O (stereo partly drawn) |  | inconclusive [inhibitor, full curve, poor fit]
57 | O=C(Nc1nnc(-c2ccc(F)cc2)o1)c1ccco1 | inactive: -12.7% | 
58 | COc1ccc(CC(=O)NNC(=O)c2nn(Cc3ccccc3)c(=O)c3ccccc23)cc1OC |  | active: 3.29 µM
59 | O=C(N=Nc1c(O)n(Cc2ccccc2)c2ccccc12)c1cc2ccccc2cc1O |  | inconclusive [inhibitor, single point]
60 | COc1cc(OC)c(NC(=O)Cc2cccs2)cc1Cl | inactive: 7.25% | 
61 | COc1ccc(S(=O)(=O)N2CCCC2CNC(=O)C(=O)Nc2cccc(F)c2)cc1 (stereo not drawn) |  | inconclusive [inhibitor, single point]
62 | CC(NC(=O)c1cc2cc(Br)ccc2oc1=N)c1ccccc1 (stereo not drawn) |  | inconclusive [inhibitor, partial curve, poor fit]
63 | CCCCNC(=O)CSc1nc2ccc(N3CCOCC3)cc2c(=O)n1Cc1ccc(OC)cc1 |  | inconclusive [inhibitor, single point]
64 | CC/C(=N\NC(N)=O)c1ccc(OC(F)F)cc1 |  | inconclusive [inhibitor, partial curve, poor fit]
65 | COc1cccc(CN2CCN(CC#Cc3ccccc3)CC2CCO)c1 (stereo not drawn) | inactive: -2.49% | 
66 | CC(C)N(C)C1CCN(C(=O)Nc2ccc(Cl)c(Cl)c2)CC1 |  | inconclusive [inhibitor, single point]
67 | COc1ccc(CNC(=O)CN(C)S(=O)(=O)c2ccc3c(c2)c(=O)n(C)c(=O)n3C)cc1 |  | inconclusive [inhibitor, full curve, poor fit]
68 | Cc1ccc(C2=NN=C(NC(=O)CSc3nc(C)cc(C)n3)SC2)cc1 |  | inconclusive [inhibitor, single point]
69 | Cc1cc(C)n(CCN(C)c2nc3nonc3nc2NC2CC2)n1 | inactive: 0.127% | 
70 | CC(NCc1ccc(Cl)c(Cl)c1)C(O)c1ccccc1 (stereo not drawn) |  | inconclusive [inhibitor, full curve]
71 | CCC1CCCCN1CCCNC(=O)c1cc2c(=O)[nH]c3ccccc3c2n1C (stereo not drawn) |  | inconclusive [inhibitor, single point]
72 | COc1ccc(Nc2ncnc3ccc(C)cc23)cc1 |  | inconclusive [inhibitor, single point]
73 | CCCCNc1cc(NC(C)=O)cc2cc(OC)c(OC)cc12 |  | inconclusive [inhibitor, partial curve]
